# Data: the supplement of paper PMC3334620
# In all, about 33,000 sequences were measured (“E-score (-0.5 to 0.5)”: median about -0.012, highest 2% from about 0.27 on). The list shows a part of the results.
# Molecular target: T1, Vhr1 (UniProt P40522)
# T1 sequence: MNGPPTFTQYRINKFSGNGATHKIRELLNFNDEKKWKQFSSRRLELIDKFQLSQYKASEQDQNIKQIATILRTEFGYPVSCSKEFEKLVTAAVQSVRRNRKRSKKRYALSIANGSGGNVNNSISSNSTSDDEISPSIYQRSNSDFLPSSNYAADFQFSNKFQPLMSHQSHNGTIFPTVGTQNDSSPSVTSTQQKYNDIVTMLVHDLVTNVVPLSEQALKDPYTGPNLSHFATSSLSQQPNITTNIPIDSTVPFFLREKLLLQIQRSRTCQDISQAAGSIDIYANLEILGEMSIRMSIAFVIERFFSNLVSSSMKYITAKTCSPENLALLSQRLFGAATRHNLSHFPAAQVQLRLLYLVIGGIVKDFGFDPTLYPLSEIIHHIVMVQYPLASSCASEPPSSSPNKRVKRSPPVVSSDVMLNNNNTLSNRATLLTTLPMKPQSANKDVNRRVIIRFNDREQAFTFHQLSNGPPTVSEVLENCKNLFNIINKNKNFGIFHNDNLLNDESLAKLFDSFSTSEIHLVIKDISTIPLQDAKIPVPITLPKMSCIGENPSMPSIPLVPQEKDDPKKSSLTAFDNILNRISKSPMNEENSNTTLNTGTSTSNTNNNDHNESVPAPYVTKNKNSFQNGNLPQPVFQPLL
# Assay: PBM E-score (8-mer binding enrichment) (E-score (-0.5 to 0.5)); higher = stronger / more preferred TF binding; most listed sequences are background and not binding sites
# Conditions: protein concentration: 200 nM; construct: GST-full length
# Procedure, shortened: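 Yeast transcription factors, full-length or as DNA-binding domains, were expressed with a GST tag using PURExpress in vitro transcription/translation. At about 100-200 nM they were applied to universal all-10-mer Agilent arrays, double-stranded by primer extension on fresh or once-stripped slides. Fluorescent anti-GST detected bound protein, and masliner normalised the scans. E-scores for ungapped eight-base words, pooled with reverse complements, came from the Universal PBM Analysis Suite.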
row,Sequence,PBM E-score
1,CACCGAGA,0.107
2,AACCGCAC,0.151
3,GGGTCAGA,-0.0746
4,CTCTACAA,-0.00129
5,AGATACAA,-0.0163
6,GATTAGAC,-0.0787
7,GCACATGC,-0.194
8,GGTGCTAC,-0.0576
9,CCGGATTA,0.106
10,AGCGGACC,-0.167
11,CTGTCGCA,-0.138
12,ATAACGGC,-0.153
13,ATTGCTTA,-0.122
14,ACCAGAAT,0.052
15,ACACATCG,0.184
16,CATAAACG,-0.00907
17,GGCGTCAA,0.0193
18,ACCCGCAT,0.251
19,ATTTTGTG,-0.0326
20,CCACAGCG,0.0478
21,GCCCGCCA,0.13
22,CAGCTTAG,-0.0924
23,ATTTGCAC,-0.211
24,ATACTCAC,0.17
25,CGTACATC,0.00023

row,Sequence,PBM E-score
1,ATGAGGGG,-0.00734
2,GAGTAAGC,-0.00885
3,CGCGGCCA,-0.0423
4,GTAGCTTA,0.00186
5,CATCCTCC,-0.0421
6,AGAACTTG,-0.0733
7,AATGGCTG,0.0135
8,AAGCCAGC,0.0934
9,CTTCTATC,-0.201
10,CCGGCCTA,0.0535
11,CAACCCTA,-0.119
12,ATAGTCGC,0.243
13,CGTGGCTC,0.0649
14,ATGTGAGA,0.0265
15,ATTACTCG,0.198
16,ATACTGTG,0.0981
17,ATCATTAC,0.274
18,CCGCATTC,-0.105
19,ACCACTCA,0.252
20,CCTCGCCC,0.118
21,ACGGGGCT,-0.151
22,CTAATCAG,0.0152
23,GTTGATTA,0.239
24,CAGCACAA,0.0898
25,ACAAGAAC,0.169

row,Sequence,PBM E-score
1,CCGCCATC,0.0291
2,TATCTACA,0.114
3,GAGGTAAC,-0.0516
4,ATGTGCGC,-0.0331
5,CAGTGGAG,0.0523
6,CGGCTTCA,-0.112
7,AGGCGTAG,-0.22
8,CGCTCGGC,0.183
9,CCCGACCA,0.105
10,ACAAGCAG,-0.105
11,CACTTGCG,-0.151
12,ACGGACGT,-0.0921
13,CAATTGCA,-0.101
14,GATGAGCA,0.147
15,AATAGAAA,-0.209
16,CACAAAGC,0.0284
17,GTCCGCAC,0.133
18,AGAGTTTC,-0.274
19,GAACCCTA,0.0459
20,CAGGAGTA,-0.00382
21,CGGATTTC,-0.0131
22,TCAGGGGA,0.134
23,AAATCTCG,-0.0574
24,AGTCCCAT,-0.00349
25,TCTGTCCA,-0.0512

row,Sequence,PBM E-score
1,CAGTGAGG,-0.0597
2,GGTTCGAA,0.123
3,CCTCTCAA,-0.219
4,CCCCGCAA,-0.00242
5,CCACCTTC,-0.0228
6,ACCCAACT,0.108
7,AACCCCGC,0.0566
8,AATGCTCG,-0.00963
9,CAAAAACA,-0.0404
10,AATTGTTA,-0.0275
11,CAATAAAC,-0.0223
12,CCCTTCCA,-0.235
13,GATTGAAC,0.152
14,ACGATATC,0.192
15,AACGAATC,0.125
16,TACATGCA,0.0058
17,ACCGATCA,0.0148
18,ACTTTGCA,-0.0219
19,CCGTGTTC,0.271
20,TACTCAAA,-0.0865
21,CCAGCCTA,0.0883
22,ATTGGTAC,0.173
23,ACGTTACA,-0.0568
24,AACAGCGG,-0.14
25,TCTCGAAA,-0.275

row,Sequence,PBM E-score
1,CGGGCTAG,-0.0423
2,GGTGGAAC,-0.253
3,TGCGGAAA,-0.216
4,CACTAGAG,-0.241
5,AGTCGCGG,0.351
6,ACATATCC,0.127
7,GAGCCTCC,0.0236
8,TAGATGCA,-0.176
9,ACTGTTCC,-0.0237
10,AAATTGTC,-0.021
11,AAGTCCCG,-0.22
12,ACGAGAAA,0.0269
13,AGCTTTGC,-0.241
14,AAGTTAAT,-0.0891
15,CTATTCCC,-0.2
16,ATTGGGAA,-0.0821
17,TGCTTTAA,0.02
18,GACGTTCA,-0.194
19,GCGGCCCA,0.191
20,CTACATTC,-0.249
21,GGAAAACC,-0.126
22,GCCCGTCA,-0.269
23,CATCCATC,0.0866
24,GCGTCGAC,0.197
25,GTTCTTGA,-0.0686

row,Sequence,PBM E-score
1,CCCTTACA,-0.0137
2,CCGAGTGC,0.154
3,AATCCTGA,0.161
4,CATGTTCA,-0.036
5,ATTAGTAA,0.12
6,ATCGTTCG,0.09
7,GAGCCCTA,-0.114
8,CACGAATC,0.288
9,CGTATACA,0.137
10,CACTTCTG,0.0529
11,CATTTTTA,-0.333
12,AGCTGCTA,-0.202
13,CACTAATC,0.19
14,GCTACGAC,0.0912
15,CATGAGTC,0.477
16,TAGAGCCA,-0.0241
17,AATGAATC,0.23
18,CTGGAAAC,-0.0736
19,GCTACACA,0.121
20,AACGACTC,0.292
21,CAGCGCGC,0.0451
22,ACCGGCAG,-0.121
23,AACCTAAA,-0.031
24,AGATGATA,0.0454
25,AGGTACGA,0.0204

row,Sequence,PBM E-score
1,GAAGCCAC,0.0168
2,AAACAGCT,0.119
3,GAAGCAGA,-0.215
4,GATGAATA,0.149
5,CACACTTC,-0.0534
6,CATTGCCG,-0.0476
7,AGTAGACA,-0.00055
8,CCCGTCAA,-0.315
9,CCTTGACA,-0.105
10,CTTTTTGA,-0.218
11,ACATATCT,0.0618
12,ACTTAGCC,-0.0801
13,CGCTGTTA,-0.0856
14,AATGTGTG,0.26
15,AGTGGGTG,0.268
16,AACCCTGG,-0.0314
17,AGAGTCAG,0.399
18,ATTGTGTA,0.184
19,AGCAGGAG,-0.0156
20,GTGTCGAA,0.128
21,AACAAAGG,-0.0471
22,CCGACTTA,-0.0517
